Experimental data reported in publication PMC5892938.
This is one part of the list. Construct or isoform of the protein are uncertain.

Biological target: GST-SBP-ILF3 (Homo sapiens) (UniProt Q12906)
Test: targeted RNA Bind-n-Seq
Details: RBNS binding buffer: 25 mM Tris pH 7.5, 150 mM KCl, 3 mM MgCl2, 0.1% Tween, 0.5 mg/mL BSA, 1 mM DTT; 27 nM protein, 750 pM RNA pool; temperature not stated; high values mean tight binding; sequences stand for … in GGGUAAAAGCGAGGUGAA…CGGGACAAGUAUUAUGGG

Sequence	binding signal (log2 fold change)
GUGUGGUGUGUUGGCACCUAACACAUCGCA [gtspaired]	-0.599
GUGUGUGGUGUUGGCUUCUAACACCAUACG [gtspaired]	-0.69
UUUUUUUUUUGAGACUGAUGCAGUCUCCUG [tttttgagapaired]	0.531
GUGUGUGGUGUUGGCCCCUAACACCACGCA [gtspaired]	-0.232
GUGGUUGGUGUUGGAACCUAACACCAGCCG [gtspaired]	-0.524
UUUUUUUUUUGAGAGGGCGCCCCUCUCCUG [tttttgagapaired]	0.802
UUUUUUUUUUGAGAUGGAGGCCAUCUCCUG [tttttgagapaired]	0.375
UUUUUUUUUUGAGACGGCGACCGUCUUCUA [tttttgagapaired]	0.687
UUUUUUUUUUGAGAUCGAUCCGAUCUCCGG [tttttgagapaired]	0.156
UUUUUUUUUUGAGAUCGAGUCGAUCUCCAG [tttttgagapaired]	0.318
UUUUUUUUUUGAGAUGGUAGCCAUCUCCUA [tttttgagapaired]	0.325
GUUGUGUGUGUUGGAGCCUAACACACACAG [gtspaired]	-0.217
GUUGUGUGUGUUGGCUUCUAACACACACGA [gtspaired]	-1.1
GGUGUGUGUGUUGGUUCCUAACACAUAUAC [gtspaired]	-0.59
UUUUUUUUUUGAGAUCGUACCGAUCUCCAG [tttttgagapaired]	0.297
UUUUUUUUUUGAGACGGAGUCCGUCUCCUG [tttttgagapaired]	0.421
UUUUUUUUUUGAGAUCGGAGCGAUCUCCUA [tttttgagapaired]	0.175
GUGUGUUGUGUUGGCACCUAACACAGCGCG [gtspaired]	-0.68
GUGUGUGGUGUUGGUUCCUAACACCGCACG [gtspaired]	-0.646
UUUUUUUUUUGAGACUGUGGCAGUCUUCUA [tttttgagapaired]	0.577
UUUUUUUUUUGAGACUGGUCCAGUCUCCUA [tttttgagapaired]	0.625
UUUUUUUUUUGAGACGGGGUCCGUUUCCGG [tttttgagapaired]	0.875
GGUGGUUGUGUUGGCCUCUAACACAAUCGC [gtspaired]	-0.534
UUUUUUUUUUGAGAGCGUUGCGCUCUCCAG [tttttgagapaired]	0.312
UUUUUUUUUUGAGACGGCUUCCGUCUUCUG [tttttgagapaired]	0.726
GUGUGUGGUGUUGGCGUCUAACACCAUAUA [gtspaired]	-0.803
UUUUUUUUUUGAGACUGCAUCAGUCUCCUG [tttttgagapaired]	0.462
UUUUUUUUUUGAGACUGUAUCAGUUUCCAG [tttttgagapaired]	0.302
